Structures are written as SMILES. This is one part of the list. The main result of the screen is listed elsewhere. These columns were measured beside it and carry no call. Most of these compounds were active or inconclusive in the main read-out, so they are no random draw.

The assay can be described thus: inhibitors of triacylglycerol accumulation, primary screen, cell-based, uHTS, fluorescence, H9c2 (AID 651582). Conditions: H9c2 cells, Nile Red lipid (TAG) fluorescence; measured here:; at 12.5 µM; cells loaded with 200 µM oleic acid.
As to `CC(C)(C)c1csc(NNC(=O)c2ccc(Br)cc2)n1`, the DAPI nuclei signal change (viability), lower = more cytotoxic was -20.9%. Regarding `CS(=O)(=O)c1sc(C#N)c2c1C(=O)CC(c1ccccc1)C2` (centres undefined), the DAPI nuclei signal change (viability), lower = more cytotoxic is -40.9%.

On to `CCCC1O[C@@H]2C[C@H]3[C@@H]4CCC5=CC(=O)C=C[C@]5(C)[C@H]4[C@@H](O)C[C@]3(C)[C@]2(C(=O)CO)O1` (some centres undefined), for which the DAPI nuclei signal change (viability), lower = more cytotoxic amounted to 23.5%. The value for `CCCCC(CC)C(=O)Nc1cc(C(=O)NCc2ccc(C)cc2)ccc1N1CCC2(CC1)CC(c1ccccc1)=NO2` (centres undefined) was -2.09%; that for `Cc1cccc(NC(=O)CSc2cccc3cccnc23)c1` was -22.6%. The same measure for `CCCCNC(=O)CSc1nc2ccc(Nc3nc(N4CCOCC4)nc(N4CCOCC4)n3)cc2s1`: -4.95%; for `CSc1nc(NCCN(C)C)c2sc3nc(-c4ccco4)c4c(c3c2n1)CCC4`: 24%; for `CCN(CC)c1ccc(/C=N/Nc2nc(C)cc(C)n2)cc1`: -21.6%. `O=c1c2c(-c3ccccc3)csc2nc2c3ccccc3c(NCCN3CCOCC3)nn12`: the DAPI nuclei signal change (viability), lower = more cytotoxic turned out to be 54.9%. The same measure for `CC(C)(C)c1csc(NC(=O)c2cccs2)n1`: -22.3%; for `c1cc2c(cc1Oc1nc(N3CCOCC3)nc(N3CCOCC3)n1)OCO2`: -11.2%. The same measure for `C=C(C(=O)c1ccccc1)C(C)C(=C)C(=O)c1ccccc1`: -43.7%. As for `CN1CCN(c2ccc([N+](=O)[O-])cc2C(=O)c2ccc(Cl)cc2)CC1`, the DAPI nuclei signal change (viability), lower = more cytotoxic was -36.7%. Consider `CCOC(=O)c1ccc(NC(=O)c2nc[nH]c2C(=O)NCCCCNC(=O)c2[nH]cnc2C(=O)Nc2ccc(C(=O)OCC)cc2)cc1`, for which the DAPI nuclei signal change (viability), lower = more cytotoxic came to 2.3%. On to `CCOc1ccc(Cc2nnc(SCC(=O)Nc3ccccc3)n(N)c2=O)cc1`, for which the DAPI nuclei signal change (viability), lower = more cytotoxic is 4.52%. `CNC(=S)NN=C(C)c1ccc(OC)cc1O`: the DAPI nuclei signal change (viability), lower = more cytotoxic was -30%. The same measure for `Cc1cc2c(cc1C)CSC(c1ccccc1OC(=O)C(C)C)SC2`: 3.28%; for `CCOc1ccccc1NC(=O)Cn1nnc(C(=O)NCc2ccco2)c1N`: -21.5%. With `COCCN1C(=O)c2ccccc2C(C(=O)Nc2ccc3c(c2)OCCO3)C1c1ccc(F)cc1` (centres undefined), the DAPI nuclei signal change (viability), lower = more cytotoxic is -8.98%. The same measure for `CC1(C(=O)NCc2ccccc2)Cc2c(-c3cccc(C(N)=O)c3)ccnc2O1` (centres undefined): -41.8%.

Consider `O=C1NC(Cc2ccc(O)cc2)c2nc3ccc(F)cc3c(=O)n2-c2cc3ccccc3cc21` (centres undefined), for which the DAPI nuclei signal change (viability), lower = more cytotoxic was -43.5%.

For `COc1ccc(-n2c(C)cc(C(=O)CCl)c2C)cc1`, the DAPI nuclei signal change (viability), lower = more cytotoxic is -42.8%. With `CC(=O)Nc1cc2cc(NS(=O)(=O)c3ccc(Cl)cc3)ccc2oc1=O`, the DAPI nuclei signal change (viability), lower = more cytotoxic is -48.2%. The same measure for `C[C@@H]1CN([C@@H](C)CO)C(=O)c2cc(N(C)C)ccc2O[C@@H]1CN(C)Cc1ccncc1`: -29.1%; for `CCCCCc1cc(=O)oc2c(C(CCN3CCCCC3)c3cc(OC)c(OC)c(OC)c3)c(OC)cc(OC)c12` (centres undefined): -34.7%; for `COCCn1cnc2c(c1=O)c1nc3ccccc3nc1n2/N=C/c1ccc(OC)c(OC)c1`: -20%. In the case of `CC(C)(C)C1CCC(CN2C(Nc3ccccc3)=NC[C@@H]2Cc2ccccc2)CC1` (some centres undefined), the DAPI nuclei signal change (viability), lower = more cytotoxic came out at 6.99%. As to `COc1ccc([C@H]2C[C@H](O)[C@@H](n3cc(-c4ccc(F)cc4)nn3)CN2Cc2cccs2)cc1`, the DAPI nuclei signal change (viability), lower = more cytotoxic is -47%. The same measure for `COc1cc(OC)c2c(-c3ccccc3)cc(=O)oc2c1C(CCN1CCCC(C)C1)c1ccc(N(C)C)cc1` (centres undefined): -7.21%. As to `CCOc1ccc(-n2c(C)cc(C(=O)CCl)c2C)cc1`, the DAPI nuclei signal change (viability), lower = more cytotoxic was -40%. As to `CN(C)c1ccc(/C=C/c2ccc3c4ccccc4ccc3[n+]2-c2ccccc2)cc1`, the DAPI nuclei signal change (viability), lower = more cytotoxic is -47.7%. The value for `Cc1nn2c(NCc3ccccn3)c3c(nc2c1-c1ccccc1)CCC3` was -32.1%. With `Cc1ccc(N=Nc2ccc(O)c3ncccc23)cc1`, the DAPI nuclei signal change (viability), lower = more cytotoxic is -29%. With `COc1cc(CNC(=O)Nc2nc(C(N)Cc3ccc(Cl)cc3)cs2)cc(OC)c1OC` (centres undefined), the DAPI nuclei signal change (viability), lower = more cytotoxic was 1.14%. Take `CN(C)CCCNC(=O)C[C@H]1C[C@H](C(=O)N2CCCCC2)[C@@]2(CCc3ccccc3)c3[nH]c4cc(-c5ccco5)ccc4c3CCN2C1=O`: the DAPI nuclei signal change (viability), lower = more cytotoxic was -11.3%. The same measure for `O=C(Nc1ccc(-c2csc(Nc3cccc(C(F)(F)F)c3)n2)cc1)c1cc([N+](=O)[O-])cc(C(F)(F)F)c1`: -31.2%; for `O=C(N/N=C/c1cc([N+](=O)[O-])ccc1O)c1cccc2cc[nH]c12`: -21.9%; for `Cc1ccc(-c2ccc(/C=N\NC(=O)c3cc4c(ccc5ccccc54)o3)o2)cc1[N+](=O)[O-]`: 8.77%. Regarding `O=C(Nc1ccc(Cl)cc1)c1nc[nH]c1C(=O)NCCCCNC(=O)c1[nH]cnc1C(=O)Nc1ccc(Cl)cc1`, the DAPI nuclei signal change (viability), lower = more cytotoxic is -25.4%. The value for `O=C(Nc1nc(-c2ccccc2)cs1)C1CCCN(S(=O)(=O)c2cccc([N+](=O)[O-])c2)C1` (centres undefined) was -5.09%; that for `c1ccc(N=Nc2ccc3cccccc2-3)cc1` was -34.8%; that for `CCc1ccc2nc(SCC(=O)N3CC(=O)Nc4ccccc43)c(C#N)cc2c1` was -31%. The same measure for `COc1ccc(C(C(=O)NC(C)(C)C)N(CC2CCCO2)C(=O)CCC(=O)Nc2cc(C)on2)cc1` (centres undefined): -4.41%; for `COc1cc(C#Cc2c(-c3cncn3C)n(C)c3ccc(-c4ccc5cc[nH]c5c4)cc23)cc(OC)c1`: 63.3%; for `O=C(CCl)N(C/C=C/c1ccccc1)c1ccc2c(c1)OCCO2`: -22.5%. For the molecule `Cc1cc(Nc2ccc(C)c(Cl)c2)nc(N2CCOCC2)n1`, the DAPI nuclei signal change (viability), lower = more cytotoxic was -38.3%. The value for `c1ccc(N=NC2=NN(c3ccccc3)CS2)cc1` was -15.1%. For the molecule `CCOC(=O)C(C)Oc1cccc2c(=O)n(CC(=O)NCc3ccc4c(c3)OCO4)ccc12` (centres undefined), the DAPI nuclei signal change (viability), lower = more cytotoxic is -24.6%. The same measure for `Cc1nn(-c2ccccc2)c2c1CC(=O)Nc1ccccc1-2`: -28.5%; for `CC(C)CN(C#N)c1nc(N2CCOCC2)nc(N2CCOCC2)n1`: -6.64%.

In the case of `CC(C)CC(N)c1csc(NC(=O)Nc2ccccc2Cc2ccccc2)n1` (centres undefined), the DAPI nuclei signal change (viability), lower = more cytotoxic was -43.8%. The same measure for `COc1cc(C2C3=C(COC3=O)Oc3cc4c(cc32)OCO4)ccc1O` (centres undefined): -37.6%; for `C[C@@]12C(=O)Nc3ccc(Br)cc3C(=O)N1[C@H]1c3cc(Br)ccc3OC[C@@H]1[C@@H]2c1ccccc1`: -23.7%. The value for `CCOC(=O)c1c(CSC(=N)N)n(-c2ccc(C)cc2)c2cc(Br)c(OC(C)=O)cc12` was -7.23%; that for `Cc1ccc(-c2nc(NC(=O)c3cc(C(C)(C)C)nn3C)sc2C)cc1Cl` was -25.7%; that for `O=C(c1ccoc1)N1CCN(c2cc(-c3ccncc3)nc3cc(-c4cccc(Cl)c4)nn23)CC1` was 43.1%. The value for `CCN1CCN(Cc2ccc(NC(=O)c3ccc(C)c(NC(=O)c4cncc(-c5cccs5)c4)c3)cc2C(F)(F)F)CC1` was -49.3%; that for `COc1cc(OC)nc(Nc2nc(C(N)Cc3ccc(Cl)cc3)cs2)n1` (centres undefined) was -29.8%; that for `O=C(NCC1CC1)c1onc(CSc2ccncc2)c1C(=O)NCC1CC1` was -35.2%.

Take `Cc1ccccc1NC(=O)CSc1nc(Nc2ccccc2)nc(N2CCOCC2)n1`: the DAPI nuclei signal change (viability), lower = more cytotoxic is -17.9%. The same measure for `CC(C)C[C@H]1CN=C(Nc2ccccc2)N1CC1CCC(C(C)(C)C)CC1` (some centres undefined): -18.5%; for `O=C(Nc1ccc2oc(-c3cccnc3)nc2c1)c1cc2ccccc2o1`: -12.3%; for `O=C(Cn1cc[n+](CC(=O)c2ccc(Cl)cc2Cl)c1)c1ccc(Cl)cc1Cl`: -27.2%. The same measure for `CN1CCN(c2ccc(Cl)cc2NC(=O)c2nn(-c3ccccc3)c(=O)c3ccccc23)CC1`: -7.4%. Consider `COc1ccc(OC)c(N(CCN2C(=O)c3ccccc3C2=O)C(=O)CCl)c1`, for which the DAPI nuclei signal change (viability), lower = more cytotoxic is -12.9%.

Take `COc1ccc(NC(=S)N(CCCN2CCCC2)Cc2cccn2Cc2ccc(Cl)cc2)cc1Cl`: the DAPI nuclei signal change (viability), lower = more cytotoxic was -18.4%.

For the molecule `Cc1ccc(NC(=O)CSc2nnc(C)c(=O)n2N)cc1Cl`, the DAPI nuclei signal change (viability), lower = more cytotoxic was -7.96%. The value for `COCCNC(=O)c1cc2c(-c3ccc(Cl)cc3)nn(C)c2s1` was -4.73%; that for `COc1cc(NC(=O)Nc2nc(C(N)CCc3ccccc3)cs2)cc(OC)c1OC` (centres undefined) was -1.63%. For the molecule `CNC[C@H](Cc1ccccc1)NC[C@@H](Cc1cccc2ccccc12)NCCc1ccc(C)cc1`, the DAPI nuclei signal change (viability), lower = more cytotoxic was found to be 0.35%. The same measure for `O=C(CC1C[C@H](C(=O)N2CCOCC2)[C@@]2(CCC3CCCC3)c3[nH]c4ccccc4c3CCN2C1=O)NCC12CC3CC(CC(C3)C1)C2` (some centres undefined): -16%. The same measure for `CC1=C/C(=N\NC(=S)Nc2cccnc2)CC(C)(C)C1`: -44.1%; for `O=C(CCl)N=c1sccn1Cc1ccc(Cl)cc1Cl`: -21.4%; for `CC(C)C[C@H]1CNC(=S)N1CC1CCCN1C[C@H](CC(C)C)N1C[C@H](CC(C)C)N(CC2CCCCCC2)C1=S` (some centres undefined): -16.2%. Take `COc1cc2c(cc1NC(=O)CN1C(=O)NC3(CCc4ccccc43)C1=O)oc1ccccc12` (centres undefined): the DAPI nuclei signal change (viability), lower = more cytotoxic was found to be 0.786%. In the case of `CCN(CC)CCC(=O)N1C/C(=C/c2ccccc2)C(=O)/C(=C\c2ccccc2)C1`, the DAPI nuclei signal change (viability), lower = more cytotoxic is -40.4%. `O=C(Nc1nc(-c2ccc(S(=O)(=O)N3CCCCCC3)cc2)cs1)c1cccs1`: the DAPI nuclei signal change (viability), lower = more cytotoxic was -11.2%. As to `O=C(COC(=O)c1cc([N+](=O)[O-])ccc1N1CCOCC1)Nc1ccc(Cl)cn1`, the DAPI nuclei signal change (viability), lower = more cytotoxic was -11%.

`CC(=NNc1nc2ccccc2s1)c1ccncn1`: the DAPI nuclei signal change (viability), lower = more cytotoxic was -24.8%. Turning to `COCCN1Cc2cccc(C(=O)Nc3cccc(-c4nc5ccccc5[nH]4)c3)c2C1=O`, the DAPI nuclei signal change (viability), lower = more cytotoxic was -4.56%.

In the case of `CCn1c(SCC(=O)Nc2nc(-c3ccc(C)cc3)cs2)nnc1-c1ccccc1O`, the DAPI nuclei signal change (viability), lower = more cytotoxic is -7.79%.

As for `CCCCOc1ccc(CSC2=NCCN2)cc1[N+](=O)[O-]`, the DAPI nuclei signal change (viability), lower = more cytotoxic was -31.8%. The value for `Nc1ccc2ccccc2c1N=Nc1ccccc1` was -12.1%; that for `Oc1c(C(c2ccccn2)N2CCCCC2)cc(Cl)c2cccnc12` (centres undefined) was -45%.

For the molecule `COc1ccc(-c2cnc3c(NC=O)cc(-c4cccc(NS(C)(=O)=O)c4)cn23)cc1OC`, the DAPI nuclei signal change (viability), lower = more cytotoxic was -46.4%. The same measure for `NC(Cc1ccc(F)cc1)c1csc(Nc2ccc(C(F)(F)F)cn2)n1` (centres undefined): -42%; for `COc1cc2c3c(c1)c(C1=NC(=S)NC1=O)c(O)n3C(C)(C)C=C2C`: -7.52%. The same measure for `Cc1ccc2cc3cc(C(=O)NCCCN4CCCCCC4)oc3nc2c1`: 62.5%; for `Fc1cccc(/C=N/Nc2cc(N3CCOCC3)ncn2)c1`: -15.9%. As for `COc1cccc(/C=C/C(=C2\C(=O)N(c3ccccc3)N=C2C)c2ccc(Br)cc2)c1OC`, the DAPI nuclei signal change (viability), lower = more cytotoxic is 6.95%. The value for `Oc1c(C(Nc2nccs2)c2ccc(C(F)(F)F)cc2)ccc2cccnc12` (centres undefined) was -10.3%.

As for `Cn1nnnc1Sc1ncnc2scc(-c3ccc(-c4ccccc4)cc3)c12`, the DAPI nuclei signal change (viability), lower = more cytotoxic is -32.1%. The value for `CN1Cc2c(N3CCOCC3)nc3sc(C(=O)c4ccc(Br)cc4)c(N)c3c2CC1(C)C` was -8.73%; that for `CC1=CC(C)(C)Nc2ccc(OC(=O)CN3C(=O)c4ccccc4C3=O)cc21` was -17.9%.
